# Measured values as given in the supplement of paper PMC3334620.
# The full ranking holds about 33,000 sequences; the median of “E-score (-0.5 to 0.5)” is about -0.035, and the highest 2% start at about 0.35. The list shows a part of the results.
# Biological target: T1, Pdr3 (UniProt P33200)
# T1 sequence: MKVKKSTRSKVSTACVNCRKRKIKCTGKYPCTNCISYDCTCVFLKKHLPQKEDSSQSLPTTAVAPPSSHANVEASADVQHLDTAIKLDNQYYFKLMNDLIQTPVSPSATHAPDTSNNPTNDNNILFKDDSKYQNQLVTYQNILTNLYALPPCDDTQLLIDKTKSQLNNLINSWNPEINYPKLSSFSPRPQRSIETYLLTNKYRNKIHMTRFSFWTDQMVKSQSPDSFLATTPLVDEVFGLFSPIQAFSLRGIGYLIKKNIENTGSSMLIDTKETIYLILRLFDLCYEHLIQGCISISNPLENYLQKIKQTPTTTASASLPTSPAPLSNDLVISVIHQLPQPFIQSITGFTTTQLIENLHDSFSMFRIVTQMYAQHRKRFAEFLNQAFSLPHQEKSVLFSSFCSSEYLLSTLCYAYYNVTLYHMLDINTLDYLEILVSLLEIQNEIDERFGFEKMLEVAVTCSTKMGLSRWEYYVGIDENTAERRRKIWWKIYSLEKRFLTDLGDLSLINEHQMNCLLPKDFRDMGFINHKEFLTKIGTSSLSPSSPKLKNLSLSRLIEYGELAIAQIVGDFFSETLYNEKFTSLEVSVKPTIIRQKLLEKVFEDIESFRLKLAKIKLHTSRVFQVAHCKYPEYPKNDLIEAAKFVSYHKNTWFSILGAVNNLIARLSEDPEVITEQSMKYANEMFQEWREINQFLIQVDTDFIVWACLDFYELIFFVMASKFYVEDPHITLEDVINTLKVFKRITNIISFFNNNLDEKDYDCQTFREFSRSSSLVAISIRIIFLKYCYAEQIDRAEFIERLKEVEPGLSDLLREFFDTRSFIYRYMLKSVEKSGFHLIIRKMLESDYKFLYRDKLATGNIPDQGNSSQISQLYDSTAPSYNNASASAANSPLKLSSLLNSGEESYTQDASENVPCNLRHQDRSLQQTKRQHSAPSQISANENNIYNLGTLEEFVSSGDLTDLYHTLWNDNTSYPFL
# Assay: PBM E-score (8-mer binding enrichment) (E-score (-0.5 to 0.5)); higher = stronger / more preferred TF binding; most listed sequences are background and not binding sites
# Conditions: protein concentration: 200 nM; construct: GST-full length
# Procedure: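 Universal 'all 10-mer' protein binding microarrays (Agilent AMADID 015681) probed with GST-tagged S. cerevisiae TFs (full-length or DBD) made by in vitro transcription/translation (PURExpress), about 100-200 nM. Bound TF was detected with fluorescent anti-GST. Each ungapped 8-mer (which stands for itself and its reverse complement) is scored by the PBM enrichment score (E-score), a modified Wilcoxon-Mann-Whitney statistic from -0.5 to +0.5, computed with the Universal PBM Analysis Suite. Scale: above 0.35 generally sequence-specific binding.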
row,Sequence,PBM E-score
1,ATTACCAA,-0.0826
2,CAACTACA,-0.0758
3,CCCTGGGA,-0.0191
4,GCCAGCCA,-0.102
5,ATGTACCA,-0.0823
6,CGGTGGAC,0.0962
7,GACATGGA,-0.0625
8,CCTGGAGA,-0.296
9,GATGTGAC,-0.0769
10,CACTCGAG,-0.0697
11,GATCGATC,0.0712
12,CCTCCTCC,-0.0324
13,GCTTACAA,-0.356
14,AGCCTCGA,-0.144
15,AAAGGGAT,-0.154
16,AGAAAGCC,-0.112
17,CTCTCCTC,-0.26
18,CGTTCTAC,-0.145
19,CAAGAAAA,0.021
20,TACCCGCA,0.241
21,CAATGGAG,-0.169
22,AGTCACCG,-0.0593
23,AGAAACCC,-0.0287
24,TAATGTAA,-0.116
25,AGCAGCCA,-0.0997

row,Sequence,PBM E-score
1,GACTTGAA,-0.0344
2,CCCTGAAG,-0.216
3,CCAAGGTC,-0.0505
4,GCGGTCTA,0.00056
5,AGCAATTG,-0.205
6,ACGCAGCT,-0.219
7,GGAACCAC,0.285
8,CATCCAGG,-0.0852
9,ATATACTC,-0.115
10,CACTATAA,-0.289
11,AGCGTATA,-0.0253
12,AAGCCGGC,0.366
13,CCTTGTAC,-0.102
14,CCCCATAC,0.0163
15,AGCTCAGG,-0.0384
16,AGTTTTGG,-0.0613
17,GTGACCTA,-0.088
18,AAATCCGA,0.196
19,CGTGGTAG,-0.0818
20,CGCTGATC,0.337
21,TAACCGAA,0.0332
22,ATCTGATC,0.069
23,GGTGAATA,0.0918
24,AAACAGAC,0.0447
25,ACGGACTA,0.138

row,Sequence,PBM E-score
1,CCGTCGCC,0.31
2,CGCTTAAG,-0.133
3,AGGGCATC,-0.173
4,CATGCGTA,0.0245
5,CCAAGAAA,0.0413
6,TGCACGCA,-0.139
7,AATACTAA,0.0745
8,ATCAAAAT,-0.206
9,GGTAGGAA,-0.0585
10,AACGTTCA,-0.293
11,ACGTTCGG,0.101
12,GCACGAGC,-0.0491
13,GCATAGAC,-0.12
14,AGAAACAT,-0.143
15,AGGGACCA,-0.166
16,GCTCCGCC,0.303
17,AGTCTACC,-0.239
18,ACTGTTAG,-0.272
19,GCGTACTA,-0.138
20,ATGAGCAA,-0.144
21,AAGACGAT,-0.248
22,AGCGCGCC,0.129
23,AGGACAGC,-0.112
24,GACACCCC,-0.0762
25,CACTAACC,-0.0502

row,Sequence,PBM E-score
1,ACAAGTGA,-0.174
2,CGAAGTGA,-0.0304
3,AACGATCT,0.0445
4,GCTACTCA,-0.0408
5,ATACAGGA,0.117
6,AGCGCACT,-0.0919
7,ACCATCGG,0.0635
8,ACCGCGTA,0.174
9,CCAACGGA,0.362
10,AGAAACTC,0.039
11,CCGGTCAC,0.175
12,CTCAACTC,0.137
13,AACGAATG,0.128
14,CAGTATAC,-0.174
15,CAAATACG,-0.17
16,CGGGGTTC,0.225
17,GGGGGAAA,0.138
18,CTAAATGC,-0.0949
19,AAAGGGAA,-0.175
20,AAATCATG,-0.0701
21,CCGTAAAG,0.103
22,GGCGCCCA,0.099
23,CTGGTGGA,-0.119
24,CAAAGAGC,-0.0254
25,GGAGCCCC,0.00428

row,Sequence,PBM E-score
1,CTTTTCAA,-0.154
2,ATTCAGCA,-0.113
3,CGCCGAGC,0.124
4,CCTTGTGC,-0.24
5,CGTAGACA,-0.189
6,TGCCCCAA,-0.0375
7,GAGGTTAC,0.0831
8,GAAAATAC,0.207
9,ATGCGAAG,-0.0662
10,CCAAAATA,0.106
11,AATCGATG,0.069
12,AAAGGTAC,0.0362
13,TCCCCCGA,0.0813
14,ATACTGAG,0.051
15,CATGTCAC,-0.00798
16,CAACAGAA,-0.198
17,ATTAGAAG,-0.0656
18,AGGTTGCA,-0.0331
19,ATCCGAGG,0.305
20,GATGGTTA,-0.0628
21,CAGACAAG,-0.0844
22,AAATCGAA,-0.041
23,CAGGCCAG,-0.11
24,CCAGGAGG,-0.165
25,CATCTGCC,0.00366

row,Sequence,PBM E-score
1,TAATCAGA,0.035
2,CATTTCAC,0.0403
3,CTCCGCAC,0.0622
4,GCCCTCAC,-0.147
5,CCCCTCCA,-0.198
6,AGATTCCC,0.198
7,ACGATGGG,-0.0145
8,CTATAACA,-0.256
9,CCTGGGGC,-0.0901
10,AACTGCTC,0.081
11,CGCTCTCC,-0.00505
12,ACATGAAT,-0.0685
13,CGTGCAAC,-0.0779
14,GTCTTAGA,-0.106
15,AATACAGG,0.0365
16,GCTGCTAA,0.0385
17,ATAACGGA,0.386
18,AGGCTTAT,-0.181
19,ATAGCCTA,-0.173
20,CCATTATC,-0.00386
21,CCAGTCCG,0.175
22,AACAGATC,-0.0307
23,GTTGGCTA,0.0327
24,ACGCGCCC,0.0361
25,GGGTTACC,0.0101

row,Sequence,PBM E-score
1,AACGAGTA,0.0102
2,CGTGGATA,0.0566
3,ATCCAGTC,0.0785
4,AAGCGGTC,0.00531
5,ACGTTCAG,-0.203
6,GCGGTACA,0.0115
7,AGCACACT,0.0117
8,AGACTACC,-0.0458
9,ATCAAACC,0.0783
10,GCATAGCC,-0.224
11,ACAACCCC,0.0138
12,GATGGTAC,0.0447
13,ATCAGATC,-0.0678
14,CAATTGTA,0.0227
15,ACGATTAG,0.00939
16,GTGTTTAA,-0.0357
17,GCAAAAGA,-0.106
18,ATAGCCCG,0.0917
19,ATACGCGG,0.247
20,AGGGACTG,-0.128
21,CTTCGCTC,0.0008
22,CTGCCGTC,0.127
23,GAAATCCA,0.156
24,GGTTAATA,0.0847
25,CAGCTGGG,-0.0276

row,Sequence,PBM E-score
1,CTAACGAA,-0.0337
2,GGGTGAAC,-0.0605
3,CTGTTCGA,-0.168
4,AAGTGATT,0.0676
5,ATTCCTCC,0.202
6,CTGTTGCC,-0.213
7,GACTTTTA,-0.226
8,ATAGACCG,-0.0966
9,CGATAAGC,0.0492
10,TGGAGGAA,-0.0169
11,AGATAGGG,-0.176
12,AGACCAAG,0.00844
13,GAATGCAA,-0.0017
14,ACCGGTAC,-0.0109
15,AAGTCATC,-0.123
16,AGAAGGCC,0.0185
17,AAGAACGG,0.217
18,CTGCCAAA,-0.0154
19,CGATTCTA,-0.129
20,AAAAGTCC,0.0705
21,AGTCCACT,-0.18
22,AAGAAGGT,-0.0424
23,CTACCGCC,0.00135
24,AACCTTAT,-0.164
25,ACTCCGGA,0.456

row,Sequence,PBM E-score
1,AACGGATA,0.417
2,CCAGTCAA,-0.159
3,ACGGGCAC,0.025
4,CGCGAGGC,0.112
5,AATAGATC,0.0595
6,CCTTAGCC,-0.0458
7,TCTAAAGA,-0.045
8,ATGCGAAT,0.0697
9,AATAATGA,0.0123
10,GAAAATGA,-0.0287
11,GGTACTAA,0.119
12,ACAATCGT,-0.239
13,GTGGCTAA,-0.168
14,ACGATCCC,0.183
15,CCAAGCGG,0.0916
16,ACCTGATA,-0.0174
17,CCCGTTCA,0.0529
18,CCAACAGG,-0.256
19,CTATATAC,0.145
